In PubChem BioAssay AID1454 (National Center for Advancing Translational Sciences (NCATS), 2008):
In all, about 130,000 compounds went through this assay and about 550 (0.42%) were called active. Another 4% or so got no clear call; they are omitted. The call rests on the fitted dose curve; in most records, active means well fitted inhibition curve with a large enough effect; inconclusive means small, poorly fitted or top-dose-only effect, or effect the other way; inactive means flat fitted curve, though single readings scatter. Only a part is listed here, and it is no random draw.

Test: qHTS Assay for Inhibitors of the ERK Signaling Pathway using a Homogeneous Screening Assay; Stimulation with EGF; further: nearly all actives have a fitted effect of over 55% in size;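 on activity change, negative = inhibition: plate controls were stimulated vehicle wells for no effect and unstimulated vehicle basal for full effect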
Details: HEK293-V1b, EGF-stimulated phospho-ERK AlphaScreen; activity change, negative = inhibition: at the top concentration
Text: NIH Chemical Genomics Center [NCGC]
NIH Molecular Libraries Screening Centers Network [MLSCN]
Assay Submitter (PI): Dr. Wei Zheng, NCGC/NIH
The Ras/extracellular-signal-regulated kinase (ERK) mitogen activated protein (MAP) kinase signaling pathway (ERK1/2 cascade) plays a key role in transmitting signals from the cell surface to the nucleus (Nishida and Gotoh 1993; Chang and Karin, 2001). The cascade is initiated by the small G-protein Ras, which recruits Raf from the cytosol, where activation occurs. Alternatively, this pathway can be activated by elevating intracellular cAMP, or by activation of a receptor tyrosine kinase as epidermal growth factor receptor.
Activation of the ERK pathway is essential in increased cell division and cell survival. Sustained and constitutive activation of the ERK pathway, however, has been linked to uncontrolled cell proliferation, increased cell survival, and tumor progression. Thus, the ERK has been as an attractive target for cancer chemotherapy in the past few years (Sebolt-Leopold and Herrera, 2004). Given its physiological and pathological importance, assessment of ERK phosphorylation has been broadly performed in both basic research and drug discovery. Most assays for the measurement of ERK phosphorylation use the antibody-based detection methods, such as western blot and ELISA. These assays require multiple reagent additions with cell wash steps and are not suitable for high throughout screening.
The current cell-based ERK phosphorylation assay was performed using AlphaScreen platform. AlphaScreen is a two bead-based proximity-dependent chemical energy transfer luminescent assay platform. The assay reagents (ERK SureFire(TM) kit) were supplied from TGR BioSciences (Australia). In the presence of specific antibodies, phosphorylated ERK will bring "donor" and "acceptor" beads to a proximity range (<200 nm), and subsequently lead a chemical luminescent reaction upon exciting donor beads with 680 nm laser. To exclude the assay-related false positives, we used a biotinylated rabbit IgG to perform counter-screen. The biotinylated antibody mimics the phosphorylated ERK1/2 for bringing streptavidin coated beads and protein-A coated beads to a proximity range for the AlphaScreen detection.
NCGC Assay Protocol Summary:
HEK293 cells stably expressing type-1 vasopressin receptor (V1b) were maintained in DMEM medium (Invitrogen, Carlsbad, CA) at 37C under a humidified atmosphere containing 5% CO2 and 95% air. The medium contained 10% FBS, 2 mM L-glutamine, non-essential amino acid, pyruvate and 50 U/ml penicillin and 50 ug/ml streptomycin (Invitrogen). The aliquots of frozen cells were stored at -135C and used for the compound screening. All compounds were screened as titrations from 0.6 nM to 46 uM final concentration. Epidermal growth factor (EGF) was used to stimulate the ERK phosphorylation pathway. The ERK phosphorylation in cells was determined using an AlphaScreen assay kit provided by […]. Data were normalized to the controls for basal activity (DMSO only) and 100% activation (25 nM EGF). AC50 values were determined from concentration-response data modeled with the standard Hill equation.
(1) Seed 4 ul/well of resuspended frozen HEK293 cells containing 2000 cells in white 1536-well plates for overnight with 1% FBS at 37C under a humidified atmosphere containing 5% CO2 and 95% air.
(2) Add 23 nL compounds in DMSO solution. The final titration was 0.6 nM to 46 uM.
(3) Incubate at 37C for 30 min.
(4) Dispense 0.5uL EGF (25 nM in final)
(5) Incubate at 37C for 5 min.
(6) Dispense 0.5uL of 1:2 diluted 5x lysis buffer.
(7) Incubate at 37C for 10 min.
(8) Dispense 1.5uL of mixture of activation buffer and reaction buffer with AlphaScreen beads (streptavidin donor beads and protein-A acceptor beads, 10 ng/well for each).
(9) Incubate at room temperature for 5 hr.
(10) Detect the assay plate in an EnVision plate reader (PerkinElmer) using the AlphaScreen detection mode.
[…]
Potency means the concentration at half of the fitted maximal effect.

Potency, inactive:
O=C(CCCN1CC=C(n2c(=O)[nH]c3ccccc32)CC1)c1ccc(F)cc1
CN(C)CCC[C@@]1(c2ccc(F)cc2)OCc2cc(C#N)ccc21
Cc1ccc(Cl)c(Nc2ccccc2C(=O)O)c1Cl
CN1CCN(CCCN2c3ccccc3Sc3ccc(Cl)cc32)CC1
COc1ccc(C2CNC(=O)C2)cc1OC1CCCC1 (configuration not stated)
CCN(CC)CCOC(=O)C1(C2CCCCC2)CCCCC1
Oc1cc(O)c2c(c1)O[C@H](c1ccc(O)c(O)c1)[C@@H](O)C2

Potency, active:
CCN1C(c2ccccc2)=C(c2ccccc2)S/C1=C/C=C1\SC(=S)N(C)C1=O 3.16 µM
COc1ccc(-c2nn(-c3ccccc3)cc2/C=N/N=C(N)N)cc1OC 25.1 µM
Cc1nn(CC(=O)NCc2cc3ccccc3[nH]2)c(C)c1[N+](=O)[O-] 14.1 µM
COc1ccc(-c2csc(NC(=O)c3ccoc3C)n2)cc1 15.8 µM
COc1ccc(C(=O)OC(COc2ccccc2)Cn2ccnc2)cc1 (configuration not stated) 7.08 µM
COC(=O)c1ccccc1NC(=O)COC(=O)c1ccccc1N=Nc1ccc(N(C)C)cc1 14.1 µM
CC(=O)Oc1c2c(c3c(c1CC=C(C)C)O[C@@]14C(=CC5CC1C(C)(C)OC4(C/C=C(\C)C(=O)O)C5=O)C3=O)OC(C)(CCC=C(C)C)C=C2 (some centres not stated) 25.1 µM
CC(C)Oc1ccccc1/C=N/Nc1ccccc1[N+](=O)[O-] 12.6 µM
COc1c(-c2coc3cc4c(cc3c2=O)CC(O)C(C)(C)O4)ccc2c1C=CC(C)(C)O2 (configuration not stated) 12.6 µM
Cc1[nH]n(-c2ccccc2)c(=O)c1N=Nc1ccccc1 15.8 µM
CCN1C(=O)/C(=C\C=C2/C=CC=CN2CC)SC1=S 25.1 µM
CCOc1cc(/C=N/N=C(N)N)ccc1OCc1ccc(Cl)cc1 31.6 µM
CN(/N=C/c1ccc([N+](=O)[O-])o1)c1ccccc1 25.1 µM

Activity change, negative = inhibition, inactive:
Cc1ncc([N+](=O)[O-])n1CCO -1.6%
CCOC(=O)/C(C#N)=C1/C(=O)N(Cc2ccccc2)c2ccccc21 12%
O=Nc1c(-c2c(O)[nH]c3ccccc23)[nH]c2ccccc12 -17.2%
Cc1occc1C(=O)N/N=C/C(Br)=C/c1ccccc1 -1.01%
O=C(CSc1nc2ccccc2[nH]1)N/N=C/C=C/c1ccccc1[N+](=O)[O-] 9.06%
O=c1c(O)cccc2cc(O)c(O)c(O)c12 -1.35% [at 57.5 µM]
CSc1ccc2c(c1)N(CC[C@H]1CCCCN1C)c1ccccc1S2 -6.93% [at 25.7 µM]
OCCN1CCN(CCCN2c3ccccc3Sc3ccc(Cl)cc32)CC1 8.5% [at 25.7 µM]
CC(=O)Oc1cccc2c1C(=O)c1c(OC(C)=O)cc(C(=O)O)cc1C2=O -0.776%
CCN(CC)CCOc1ccc(/C(=C(\Cl)c2ccccc2)c2ccccc2)cc1 -13.3% [at 25.7 µM]
CC1=C(C(=O)OCc2ccccc2)C(c2ccc(C(C)(C)C)cc2)NC(=O)N1CCCCCC(=O)O (configuration not stated) -2.19%
CC1OC(OCC2OC(Oc3c(-c4ccc(O)c(O)c4)oc4cc(O)cc(O)c4c3=O)C(O)C(O)C2O)C(O)C(O)C1O (configuration not stated) 0.859%
CC(=O)O[C@H]1C[C@@]2(C)[C@H](C[C@@H](O)[C@H]3[C@@]4(C)CC[C@@H](O)[C@@H](C)[C@H]4CC[C@@]32C)C1=C(CCC=C(C)C)C(=O)O 5.52% [at 25.7 µM]
CN1CCN(c2nc3cc(C(F)(F)F)ccc3n3cccc23)CC1 -2.99%
O=C(/C=C\c1ccco1)Nc1nc(-c2ccccc2)cs1 18.5%
CN(C)c1ccc(/C=C2/C(=O)Nc3ccccc32)cc1 -2.04%
CC[C@H](C)C(=O)O[C@H]1CCC=C2C=C[C@H](C)[C@H](CC[C@@H]3C[C@@H](O)CC(=O)O3)[C@H]21 -4.09%
O=C1c2ccccc2C(=O)c2c1ccc(O)c2O 4.89%
CN1C=CC=C/C1=C1/SC(=S)N(Cc2ccccc2)C1=O 23.1%
COc1ccccc1CC(Cc1nc2ccccc2[nH]1)c1nc2ccccc2[nH]1 (configuration not stated) -2.54%
Oc1cc2c(cc1O)[C@H](c1ccccc1)CNCC2 5.94%
CC(C)(C)[C@H]1C=C(C(=O)N2CCN(Cc3ccccc3)CC2)O[C@@H](OCc2ccc(CO)cc2)C1 -3.05% [at 57.5 µM]
CCOC(=O)C1=C(C)NC(C)=C(C(=O)OC)[C@H]1c1cccc([N+](=O)[O-])c1 -5.87%
CC(C)(C=O)Cc1cc(C(C)(C)C)c(O)c(C(C)(C)C)c1 6.49%
CCCN1C(=O)/C(=C/c2nc3ccccc3c(=O)[nH]2)c2ccccc21 2.99%
COc1ccc([C@@H]2CC(=O)c3c(O)cc(O)cc3O2)cc1O 5.47%
O=C(CCCN1C(=O)/C(=C\c2ccccc2)SC1=S)Nc1ccc(O)cc1 6.37%
